# Measurements from PubChem BioAssay AID2675 (National Center for Advancing Translational Sciences (NCATS), 2010).
# The whole screen tested about 280,000 compounds, of which about 100 (0.036%) were called active. This list was built around the results that the source calls inconclusive (neither active nor inactive); the mix of calls is not that of the screen. Calls come from the whole dose curve; as a rule, active = well fitted inhibition curve with a large enough effect in the signal ratio, with a control signal flat (not every such curve was filed as active); inconclusive = small, poorly fitted or top-dose-only effect, or effect the other way, or a change in a side signal; inactive = no such curve, though single readings can be large or run the other way; the % refers to the signal ratio. Where the call is inconclusive, the potency comes from a doubtful curve fit. “Side channel” marks fits to a control or component signal instead of the main read-out.
# Molecular target: Muscleblind-like protein 1 (Homo sapiens) (UniProt Q9NR56)
# UniProt Q9NR56, sequence (Q9NR56 whole entry, looked up): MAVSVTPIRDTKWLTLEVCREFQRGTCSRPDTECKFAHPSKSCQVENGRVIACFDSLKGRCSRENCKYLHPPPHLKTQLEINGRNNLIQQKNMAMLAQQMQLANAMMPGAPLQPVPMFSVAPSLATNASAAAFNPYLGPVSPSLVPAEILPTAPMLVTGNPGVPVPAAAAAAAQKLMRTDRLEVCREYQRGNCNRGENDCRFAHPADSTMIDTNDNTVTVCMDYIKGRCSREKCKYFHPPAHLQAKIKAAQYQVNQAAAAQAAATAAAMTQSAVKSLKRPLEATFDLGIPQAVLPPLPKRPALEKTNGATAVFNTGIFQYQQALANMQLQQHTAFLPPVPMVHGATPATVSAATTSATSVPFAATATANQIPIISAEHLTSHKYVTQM
# Assay: qHTS Assay for Inhibitors of MBNL1-poly(CUG) RNA binding
# Details: TR-FRET MBNL1-His/biotin-(CUG)12 binding, 665/545 ratio; series mostly up to 57.5 µM
# Method in brief: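 TR-FRET between His-tagged MBNL1 and biotin-(CUG)12 RNA, detected with Tb anti-His antibody (0.055 ng/ul) and streptavidin-XL665 (5 nM), 60 min at room temperature. Compounds titrated 92 nM to 58 uM; 665/545 nm ratio normalized to buffer and complex controls.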
# Potency is the fitted concentration of half-maximal effect; tags give direction and shape of the fitted curve or compound fluorescence and quenching.
row,SMILES,Potency
1,O=c1[nH]c2ccccc2c(=O)n1Cc1ccccc1,inactive
2,C/C(=N\NC(=S)NC(C)C)c1cccc([N+](=O)[O-])c1,"inconclusive: 31.6 µM [quencher, side channel, single point]"
3,O=C(Oc1cccnc1)c1cc2ccccc2oc1=O,"inconclusive: 25.1 µM [quencher, side channel, partial curve]"
4,NC(=O)NC(=O)CC1S/C(=N/N=C2\CSC(=O)N2)NC1=O (stereo not drawn),inactive
5,C(=N\NC1=Nc2cccc3cccc1c23)/c1ccccn1,"inconclusive: 25.1 µM [quencher, side channel, partial curve]"
6,CCC(=O)Nc1cccc(NC(=S)NC(=O)c2ccc(Cl)cc2)c1,"inconclusive: 17.8 µM [fluorescent, side channel, single point]"
7,Cc1ccc2[nH]c(=O)c3cc(C(=O)N4CCN(C(=O)c5ccco5)CC4)sc3c2c1,"inconclusive: 14.1 µM [quencher, side channel, partial curve]"
8,CCOC(=O)c1c(-c2ccccc2)csc1NC(=O)CSc1nncs1,inactive
9,Cn1nc([N+](=O)[O-])nc1Sc1nnnn1-c1cccc(C(=O)O)c1,"inconclusive: 8.91 µM [quencher, side channel, partial curve]"
10,O=C(COC(=O)CCc1ccccc1)Nc1cc([N+](=O)[O-])ccc1F,"inconclusive: 28.2 µM [quencher, side channel, single point]"
11,O=c1c(-c2ccc(Cl)cc2)[n+]([O-])c2ccccc2n1OCc1ccccn1,"inconclusive: 3.16 µM [quencher, side channel, single point]"
12,COc1ccc(-c2cc(C(=O)NCc3cn(C)nc3C)c3ccccc3n2)cc1OC,"inconclusive: 15.8 µM [quencher, side channel, partial curve, poor fit]"
13,CNC(=S)N/N=C/c1cc(Br)cc(Br)c1O,inactive
14,CCOc1cc(/C=C(/C#N)c2ccc(F)cc2)ccc1OCc1ccc(C(=O)O)o1,"inconclusive: 17.8 µM [quencher, side channel, partial curve]"
15,Cc1cccc(CS(=O)(=O)c2ncc(Cl)c(C(=O)Nc3nnc(C(C)C)s3)n2)c1,"inconclusive: 8.91 µM [quencher, side channel, partial curve]"
16,CCc1cc(SC#N)cc(CC)c1NC(=O)CCl,inactive
17,CN1CCN(c2ccc(Nc3ccnc4cc(Cl)ccc34)cc2)CC1,"inconclusive: 14.1 µM [quencher, side channel, partial curve]"
18,O=C(Nc1cccc(S(=O)(=O)N2CCCC2)c1)c1ccc2c(c1)OCO2,inactive
19,O=C(COC(=O)c1sc2cc(F)ccc2c1Cl)Nc1ncc(Cl)cc1Cl,"inconclusive: 0.126 µM [fluorescent, side channel, full curve, poor fit]"

row,SMILES,Potency
1,COc1cc([N+](=O)[O-])c(OC)cc1SCc1n[nH]c(=S)n1-c1ccc(C)cc1,"inconclusive: 15.8 µM [quencher, side channel, partial curve]"
2,NC(=O)CC(c1ccccc1)c1ccc2c(c1)OCO2 (stereo not drawn),inactive
3,Cc1cccc(NC(=O)c2cc(NC(=O)CCCC(=O)O)ccc2Cl)n1,"inconclusive: 39.8 µM [quencher, side channel, single point]"
4,N#Cc1c(N)nc2c3c(sc(=N)c2c1N)NC(=O)CC3c1c(F)cccc1Cl (stereo not drawn),"inconclusive: 20 µM [fluorescent, side channel, single point]"
5,COc1ccc(N(CCCN2C(=O)c3cccc4cccc(c34)C2=O)C(=O)c2cccc(OC)c2)cc1,"inconclusive: 15.8 µM [quencher, side channel, partial curve]"
6,O=C(Nc1ccc(C(=O)N2CCOCC2)cc1)c1ccccc1[N+](=O)[O-],"inconclusive: 25.1 µM [quencher, side channel, partial curve]"
7,Brc1ccc(N/N=C(/N=Nc2nn[nH]n2)c2ccccc2)cc1,"inconclusive: 15.8 µM [quencher, side channel, partial curve]"
8,CCN(CC)S(=O)(=O)c1ccc(N/N=C(\C)c2ccncc2)nc1,"inconclusive: 25.1 µM [quencher, side channel, partial curve]"
9,CCOC(=O)C1=C(CS(=O)(=O)c2ccc(F)c(C)c2)NC(=O)NC1c1ccc(O)c(O)c1 (stereo not drawn),"inconclusive: 0.794 µM [inhibitor, full curve, poor fit]"
10,COc1cc(C(=O)NC(=S)N(CCc2ccccc2)CCc2ccccc2)cc(OC)c1OC,"inconclusive: 39.8 µM [quencher, side channel, single point]"
11,O=C(O)Cn1cccc1C(=O)c1ccccc1,"inconclusive: 39.8 µM [fluorescent, single point]"
12,O=C(CCCN1C(=O)/C(=C/c2ccccc2Cl)SC1=S)N1CCCC1,"inconclusive: 25.1 µM [quencher, side channel, partial curve]"
13,O=C1CSC(c2cccc([N+](=O)[O-])c2)N1Cc1ccccc1 (stereo not drawn),"inconclusive: 20 µM [quencher, side channel, partial curve]"
14,Cc1ccc(CNC(=O)C2CCCN(S(=O)(=O)c3cccc4nonc34)C2)cc1 (stereo not drawn),inactive
15,CC(C)(C)c1n[nH]c(=S)n(/N=C/c2cccs2)c1=O,"inconclusive: 0.126 µM [quencher, side channel, partial curve, poor fit]"
16,O=[N+]([O-])c1ccccc1OCc1nc(-c2cccs2)no1,"inconclusive: 22.4 µM [quencher, side channel, single point]"
17,CC(c1ccc(C(C)(C)C)cc1)S(=O)CC(O)CO (stereo not drawn),"inconclusive: 3.55 µM [fluorescent, side channel, partial curve, poor fit]"
18,O=C(Nc1ccc2nccnc2c1)c1ccco1,"inconclusive: 15.8 µM [quencher, partial curve]"
19,CC1CCN(C(=O)CSc2nc3ccccc3[nH]2)CC1,inactive
